# Results reported in article PMC4336329 (PLoS ONE, 2015).
# Screen size: about 310,000 compounds; about 14,000 (4.5%) showed an effect of 50% or more. The effect is printed as a negative number. Some of the results follow.
# Target: human ether-à-go-go-related gene (hERG) potassium channel (human, UniProt Q12809)
# Test: primary screen, population patch clamp on CHO cells stably expressing hERG
# 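Further: peak tail current of the secondary pulse compared with the same well before compound.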
# Sequence of human ether-à-go-go-related gene (hERG) potassium channel (Q12809 whole entry, looked up): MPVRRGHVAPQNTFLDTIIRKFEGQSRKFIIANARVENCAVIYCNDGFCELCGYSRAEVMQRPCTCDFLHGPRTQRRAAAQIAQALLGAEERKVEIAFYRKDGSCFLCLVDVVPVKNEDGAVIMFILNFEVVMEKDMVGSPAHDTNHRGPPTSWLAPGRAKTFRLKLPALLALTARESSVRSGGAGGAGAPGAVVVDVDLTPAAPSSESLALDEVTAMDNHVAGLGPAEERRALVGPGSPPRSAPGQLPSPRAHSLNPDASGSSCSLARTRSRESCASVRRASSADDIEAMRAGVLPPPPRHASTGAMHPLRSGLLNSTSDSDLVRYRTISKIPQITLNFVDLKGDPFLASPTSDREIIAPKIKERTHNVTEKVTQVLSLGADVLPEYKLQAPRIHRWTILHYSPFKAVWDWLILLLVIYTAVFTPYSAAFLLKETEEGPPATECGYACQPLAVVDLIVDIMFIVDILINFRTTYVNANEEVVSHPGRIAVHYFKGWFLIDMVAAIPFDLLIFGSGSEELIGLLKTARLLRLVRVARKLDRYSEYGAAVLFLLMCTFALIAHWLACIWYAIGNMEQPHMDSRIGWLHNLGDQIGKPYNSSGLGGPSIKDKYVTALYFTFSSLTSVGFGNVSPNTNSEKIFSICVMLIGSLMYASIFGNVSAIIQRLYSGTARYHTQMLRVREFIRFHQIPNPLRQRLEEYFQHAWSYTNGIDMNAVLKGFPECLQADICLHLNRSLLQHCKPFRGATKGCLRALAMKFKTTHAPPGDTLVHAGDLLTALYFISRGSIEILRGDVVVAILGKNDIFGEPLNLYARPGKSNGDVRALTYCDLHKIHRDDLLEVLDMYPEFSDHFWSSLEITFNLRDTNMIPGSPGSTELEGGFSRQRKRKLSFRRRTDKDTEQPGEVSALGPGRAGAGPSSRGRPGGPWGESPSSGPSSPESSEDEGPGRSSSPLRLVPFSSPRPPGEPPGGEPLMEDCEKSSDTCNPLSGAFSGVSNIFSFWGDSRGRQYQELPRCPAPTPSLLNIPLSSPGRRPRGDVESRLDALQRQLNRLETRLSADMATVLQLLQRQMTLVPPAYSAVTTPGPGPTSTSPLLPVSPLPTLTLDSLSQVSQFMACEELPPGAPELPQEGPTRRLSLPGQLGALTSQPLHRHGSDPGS
row,SMILES,"hERG current change (%, negative = inhibition) at 10uM"
1,Cc1cccc2sc(NC(=O)[C@H](C)N3C(=O)C4CC=CCC4C3=O)nc12 (stereo partly drawn),23.9%
2,COc1ccc(C(CNC(=O)c2[nH]c(C)c(C(C)=O)c2C)N2CCOCC2)cc1 (stereo not drawn),-4.61%
3,CCn1c(O)c(/C=N/N=C2CCCCC2)c2cc(C3=NNC(=O)CC3)ccc21,4.79%
4,CC(=O)N1CCN(S(=O)(=O)c2ccccc2)C1c1ccccc1 (stereo not drawn),-4.22%
5,CCN(CC)S(=O)(=O)c1ccc2c(c1)oc(=O)n2CC(=O)NC1CCCCC1,9.66%
6,COc1c(C(=O)Nc2ccc(Br)cn2)ccc2ccccc12,8.4%
7,CCCc1ncc(CN2CCC(C(=O)Nc3cccc(-c4cscn4)c3)CC2)cn1,-34.9%
8,COc1cc(C(=O)N(Cc2cccnc2)Cc2cc3cc4c(cc3[nH]c2=O)OCCO4)cc(OC)c1OC,10.1%
9,COc1ccc(CC(NC(C)=O)C(=O)NC2CCN(S(=O)(=O)c3cccc4ccccc34)CC2)cc1OC (stereo not drawn),6%
10,CCOC(=O)c1c(NC(=O)CSC(=S)N(C)C)sc(C)c1C,12.5%
11,COc1cc(OC)cc(C(=O)N[C@H](C(=O)OCC(=O)Nc2ccc(OC)c(OC)c2)C(C)C)c1,-11.1%
12,Cc1ccc(CCNC(=O)c2cc(S(=O)(=O)N3CCCCC3)c[nH]2)cc1,2.26%
13,Cc1ccc2c(c1)[C@@H](O)C[C@@H](C)N2N=O,-3.52%
14,CCN(C(=O)CN1CCN(c2ccccc2O)CC1)c1c(N)n(Cc2ccccc2)c(=O)[nH]c1=O,-1.71%
15,CC(C)C(OC(=O)c1nsc(Cl)c1Cl)C(=O)NC1CCCCC1 (stereo not drawn),-17.7%
16,CC(=O)c1c(C)nc(-c2ccccc2)nc1NC(=O)C(C)C,-8.71%
17,CC(COc1ccccc1)N1CCC(CO)(Cc2ccccc2)CC1 (stereo not drawn),-50.6%
18,Cc1cc(=O)oc2cc(OC(C)C(=O)NCc3ccccn3)ccc12 (stereo not drawn),9.03%
19,CCOC(=O)c1c(CN2CCN(c3ccccc3)CC2)oc2cc(Br)c(O)cc12.Cl,14.3%
20,CC(NC(=O)[C@H](Cc1c[nH]c2ccccc12)NC(=O)[C@@H]1Cc2ccccc2CN1)c1ccccc1 (stereo partly drawn),-42%
21,COc1ccc(C(c2nnnn2Cc2cccs2)N2CCN(c3ccccc3)CC2)cc1OC (stereo not drawn),-63.5%

row,SMILES,"hERG current change (%, negative = inhibition) at 10uM"
1,N#CCSc1nnc(Nc2ccccc2)s1,-3.62%
2,COC(=O)CC/C(O)=C1\C(=O)CC(C)(C)CC1=NCCc1nc2ccccc2[nH]1,3.19%
3,COc1cccc(NC(=S)N2CCC(NC(=O)c3ccco3)CC2)c1,-11%
4,O=C(NC(=S)Nc1ccc2c(c1)OCO2)c1ccccc1,11.4%
5,CCC1(CC)NC(=O)N(CC(=O)OC(C)C(=O)Nc2ccc(NC(C)=O)cc2)C1=O (stereo not drawn),3.1%
6,COCc1c(C#N)c(NCCc2ccccc2)nc(C)c1[N+](=O)[O-],19.1%
7,CCn1c2ccccc2c2nnc(SCc3ccccc3)nc21,-3.61%
8,Cc1ccccc1C(=O)N1CCC(C(=O)Nc2cccc(S(=O)(=O)N3CCCCC3)c2)CC1,-23.3%
9,Cc1cc(C)c2c(CN3CCCCC3C)cc(=O)oc2c1.Cl (stereo not drawn),13.9%
10,CCOC(=O)N1CCN(C(=O)/C(=C/c2ccc(F)cc2)NC(=O)c2ccccc2)CC1,-48.5%
11,O=C(NNC(=O)C1CCCO1)c1ccc(F)cc1 (stereo not drawn),25.5%
12,O=C(CN1CCN(c2nc(-c3ccc(F)cc3)cs2)CC1)Nc1ccc2c(c1)OCO2,-21.6%
13,CC(=O)c1ccc(OCC(O)CN2CCN(Cc3ccccc3)CC2)cc1.Cl (stereo not drawn),-48.2%
14,C=CCOc1ccc(C2/C(=C(\O)c3ccc(F)cc3)C(=O)C(=O)N2CCCN(C)C)cc1 (stereo not drawn),26.7%
15,CN1CCN(S(=O)(=O)c2cccc(C(=O)Oc3ccccc3Cl)c2)CC1,-9.53%
16,Cc1ccc(C(=O)NCc2ccccn2)cc1S(=O)(=O)N1CCOCC1,8.99%
17,Cc1ccccc1N(CC(=O)NCCc1ccccc1)C(=O)CCC(=O)Nc1ccccn1,-1.2%
18,CCN(CC)C(=O)CSc1nnc(-c2ccc(F)cc2)n1N,-3.01%
19,COc1ccc(C2C(C#N)=C(N)N(N(C)C)C3=C2C(=O)CC(C)(C)C3)cc1OC (stereo not drawn),-9.6%
20,CCCCSc1nc(C)cc(SCC(=O)N/N=C/c2cccc(OC)c2O)n1,1.63%
21,CCn1c(=O)c2c(O)cc(=O)oc2c2ccccc21,1.86%
